Data: article PMC4336329 (PLoS ONE, 2015)
Hit rate of the full screen: of about 310,000 compounds, about 2,200 (0.71%) showed an effect of 50% or more. Effects have a minus sign here. Some of the results follow.

target: human ether-à-go-go-related gene (hERG) potassium channel (human, UniProt Q12809); assay: primary screen, population patch clamp on CHO cells stably expressing hERG
Sequence (Q12809 whole entry, looked up): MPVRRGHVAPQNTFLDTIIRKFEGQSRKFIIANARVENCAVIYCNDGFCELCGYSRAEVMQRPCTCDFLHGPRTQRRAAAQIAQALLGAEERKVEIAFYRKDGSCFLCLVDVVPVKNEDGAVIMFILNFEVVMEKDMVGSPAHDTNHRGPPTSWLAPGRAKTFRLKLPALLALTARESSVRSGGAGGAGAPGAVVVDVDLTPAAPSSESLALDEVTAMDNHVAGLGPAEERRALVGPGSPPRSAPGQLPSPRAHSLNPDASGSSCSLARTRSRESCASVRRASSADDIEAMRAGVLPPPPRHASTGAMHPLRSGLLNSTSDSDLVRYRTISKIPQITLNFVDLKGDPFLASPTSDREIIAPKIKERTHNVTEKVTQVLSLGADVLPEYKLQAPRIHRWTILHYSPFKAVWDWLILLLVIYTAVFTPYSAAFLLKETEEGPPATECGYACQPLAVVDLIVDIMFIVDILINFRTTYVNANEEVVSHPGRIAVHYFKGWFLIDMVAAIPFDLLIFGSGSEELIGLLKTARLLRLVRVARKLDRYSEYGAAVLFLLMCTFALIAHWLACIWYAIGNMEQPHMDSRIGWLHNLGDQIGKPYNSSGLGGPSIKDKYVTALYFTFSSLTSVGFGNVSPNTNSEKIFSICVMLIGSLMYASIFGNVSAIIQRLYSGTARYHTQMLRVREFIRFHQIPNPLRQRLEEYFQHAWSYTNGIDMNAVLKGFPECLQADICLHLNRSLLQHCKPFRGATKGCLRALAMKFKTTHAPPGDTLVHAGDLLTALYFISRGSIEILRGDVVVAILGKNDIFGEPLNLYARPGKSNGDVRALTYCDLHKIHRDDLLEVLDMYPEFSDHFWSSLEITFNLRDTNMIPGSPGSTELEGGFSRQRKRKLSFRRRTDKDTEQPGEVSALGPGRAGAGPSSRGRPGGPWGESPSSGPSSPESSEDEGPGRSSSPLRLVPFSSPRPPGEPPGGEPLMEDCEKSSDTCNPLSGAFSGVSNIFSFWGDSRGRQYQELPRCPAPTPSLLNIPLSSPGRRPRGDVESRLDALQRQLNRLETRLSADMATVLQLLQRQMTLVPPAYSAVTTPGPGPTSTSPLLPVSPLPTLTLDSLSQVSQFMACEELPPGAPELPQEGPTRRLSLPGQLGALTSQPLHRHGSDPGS

Structure (SMILES) | hERG current change (%, negative = inhibition) at 1uM [%]
Cc1ccc(C(CNC(=O)Nc2ccc(Cl)cc2)N2CCN(C)CC2)cc1 (stereo not drawn) | -41.4
COc1ccc(NS(=O)(=O)c2ccc(Oc3c(C#N)cccc3C#N)cc2)cc1 | 8.49
O=C(c1ccc(Cl)c(S(=O)(=O)N2CCCCCC2)c1)N1CCCC(C(F)(F)F)C1 (stereo not drawn) | -2.82
CCOC(=O)c1cc(NCc2cccs2)ccc1N1CCOCC1 | 4.02
CN(Cc1ccco1)C(=O)c1cc2c(s1)-c1ccc(Cl)cc1S(=O)(=O)C2 | 8.2
C/C(N)=C(/C#N)C(=O)COC(=O)C(NS(=O)(=O)c1ccc(Cl)cc1)C(C)O (stereo not drawn) | 12.2
CCN1CCN(C(=O)c2cc(COc3ccc(C(C)=O)cc3OC)on2)CC1 | 8.14
O=C(NCCN1CCOCC1)c1ccccc1N1C(=O)[C@@H]2Cc3c([nH]c4ccccc34)C(c3ccccc3)N2C1=O (stereo partly drawn) | -4.5
Cc1c(NC(=O)COC(=O)CCC(=O)c2ccc(Cl)cc2)c(=O)n(-c2ccccc2)n1C | 9.62
COc1ccc(Oc2cnn(-c3ccccc3)c(=O)c2Br)cc1 | 8.31
CCCc1[nH][nH]c(=O)c1C(c1ccccc1)C(C#N)C#N (stereo not drawn) | -5.33
CCc1nnc(NC(=O)Cn2nc(-c3ccc(OC)c(OC)c3)ccc2=O)s1 | 4.12
Cc1ccc2cc(CCNC(=O)c3ccc(S(=O)(=O)N4CCCCC4)cc3)c(=O)[nH]c2c1 | 9.32
COC(=O)[C@H](Cc1ccccc1)NC(=O)[C@@H]1C[C@H]1[C@@H](NC(=O)OCc1ccccc1)c1ccccc1 | 2.84
COc1ccc(-c2cc(=O)c3cc(OC)ccc3[nH]2)cc1 | 3.34
Cc1ccc(S(=O)(=O)N(C)c2ccc(C(=O)NCc3cccnc3)cc2)cc1 | 4.98
CSCCC(N=Cc1c(O)n(-c2ccc(Cl)cc2)c(=O)[nH]c1=O)C(=O)OC(C)(C)C (stereo not drawn) | -0.641
COC(=O)c1c(C(=O)OC)c2ccncn2c1Cl | 12.8
Cc1ccc2oc(-c3cccc(NC(=O)c4ccc(Br)o4)c3C)nc2c1 | 3.74
CN(C)c1ccc(/C=N/N=C2/NC(=O)/C(=C/c3ccc([N+](=O)[O-])cc3)S2)cc1 | 8.91
N#Cc1cccc(NC(=O)CNC(=O)Cc2ccccc2)c1 | 11.8

Structure (SMILES) | hERG current change (%, negative = inhibition) at 1uM [%]
CCN(CC(=O)Nc1cccc(OC)c1)CC(=O)Nc1ccccc1C | 7.5
CSCC[C@H](NC(=O)OC(C)(C)C)C(=O)N1CCC(C(=O)N[C@@H](C)C(=O)O)CC1 | 5.24
O=C1CCCN1c1ccc(S(=O)(=O)Oc2ccc(Cl)cc2)cc1[N+](=O)[O-] | 6.06
O=C(O)CCn1cc(-c2ccc(Cl)cc2)nc1-c1ccncc1 | 12.4
C=CCOC(=O)N1CCN(c2cccc(C(F)(F)F)c2)CC1 | 18.2
Cc1oc(-c2ccccc2Cl)nc1CN1CCCCC1CO (stereo not drawn) | 8.18
O=C(NCc1nnnn1-c1ccc(F)c(F)c1)c1cc2ccccc2o1 | -4.13
CC(=O)c1ccc(NC(=O)CN2C(=O)/C(=C/C=C/c3ccccc3)SC2=S)cc1 | 8.12
CC(Oc1ccc(Cl)cc1)C(=O)Nc1ccc(S(=O)(=O)Nc2nccs2)cc1 (stereo not drawn) | 0.577
CCN(CC)C(=O)C(C)N(C#N)c1nc(Cl)nc(N(C)C)n1 (stereo not drawn) | 13.7
Clc1cccc(-c2cc3nc4c(c(NCc5ccco5)n3n2)CCCC4)c1 | -0.896
CN(C)c1cccc(Oc2nc3c(c(=O)n(C)c(=O)n3C)n2C)c1 | 5.16
CN1CCN(C(c2ccccn2)c2cc(Cl)c3cccnc3c2O)CC1 (stereo not drawn) | 9.92
Cc1nonc1NC(=O)CSc1nnc(-c2ccoc2C)n1-c1cccc(Cl)c1 | -58.8
CCn1c(SCC(=O)Nc2ccc(F)cc2)nnc1-c1cnccn1 | -6.73
CC(C)[C@H](Nc1ncnc2c1oc1ccccc12)C(=O)O | 11.5
O=C(NCc1ccco1)c1nc2nc(-c3cccs3)cc(C(F)(F)F)n2n1 | 3.1
Cc1cccc(-n2ncc3c(N4CCOCC4)ncnc32)c1 | -22.2
CCn1c(SCC(=O)NNC(=O)c2ccccc2)nnc1-c1ccncc1 | -3.88
CCOC(=O)CN(Cc1sccc1C)C(=O)Nc1cccc(OC)c1 | 12.8
COc1cccc(CNc2ccccc2O)c1OCc1ccccc1F | 10.6

Structure (SMILES) | hERG current change (%, negative = inhibition) at 1uM [%]
CCc1n[nH]c(=S)n1/N=C/c1cc(Br)c(O)c(OC)c1 | 11
O=C1C[C@H](NC(=O)OCc2ccccc2)CO1 | 6.98
Cc1cc2c(=O)n(NC(N)=O)c(C)nc2s1 | -0.691
COc1cc(C2CC(=O)N(CC(=O)NCc3ccco3)c3ccccc3S2)cc(OC)c1OC (stereo not drawn) | -4.08
O=C(O)C1(P(=O)(c2ccc(Cl)cc2)c2ccc(Cl)cc2)CCCC1 | 6.25
O=C(COC(=O)c1ccc(-n2cnnn2)cc1)Nc1cc(Cl)ccc1F | 5.9
Cc1[nH]c2ccc(Cl)cc2c(=O)c1CN1CCCC1 | 5.01
COc1ccc(C(=O)N2CC3(CC(c4cccc([N+](=O)[O-])c4)=NO3)C[C@H]2C(=O)NCC(N)=O)cc1 (stereo partly drawn) | 11.3
Cc1ccc(S(=O)(=O)c2ccc(Cl)cc2)cc1S(=O)(=O)N(C)CC(=O)O | 14.3
COc1ccc(OCC(=O)Nc2cc(S(=O)(=O)N3CCCCC3)ccc2OC)cc1 | -2.4
O=C(O)c1cc(-c2cccnc2)nn1-c1ccccn1 | -5.27
O=C(NNC(=S)NC1CCCCC1)c1ccccc1Br | 14.1
Cc1ccc(CNC(=O)CN(C(=O)C2(C)CC(=O)N=C3C=CC=CN32)c2cc(C)ccc2C)cc1 (stereo not drawn) | 16.7
CCN(CC)S(=O)(=O)c1cccc(C(=O)N[C@H](C(=O)OCC(=O)Nc2ccccc2)C(C)C)c1 | 7.69
Cc1cc(NC(=O)COC(=O)c2ccc(OC(F)(F)F)cc2)no1 | 4.75
COc1cc(CN2CCN(S(=O)(=O)c3ccccc3)CC2)cc(OC)c1OC.O=C(O)C(=O)O | 0.548
O=C(Nc1nccs1)c1ccc(S(=O)(=O)c2ccccc2)cc1 | 8.72
C#CC[N+](C)(C)C(C#Cc1ccccc1)CC=C.[Br-] (stereo not drawn) | 7.68
CCC(C)(C)C1CCc2[nH]nc(C(=O)N/N=C(\C)c3ccco3)c2C1 (stereo not drawn) | -8.83
Cc1ccc(CC2C(=O)N(c3cc(Cl)ccn3)C(=O)C2C)cc1 (stereo not drawn) | 6.69
Cc1ccc2ncccc2c1NC(=S)NC(=O)c1ccccc1 | 8.38

Structure (SMILES) | hERG current change (%, negative = inhibition) at 1uM [%]
COc1ccc(CNC(=O)COC(=O)CCN2C(=O)C3CC=CCC3C2=O)cc1OC (stereo not drawn) | 10.5
O=C(c1ccccn1)N(CC1CCCO1)C1(C(=O)NC2CCCCC2)CCCCC1 (stereo not drawn) | 5.42
CS(=O)(=O)N(CCc1ccccc1)CC(=O)Nc1ccc2c(c1)OCO2 | 2.04
CC(C)CN1C(=O)NC(NS(=O)(=O)c2ccc(N)cc2)(C(F)(F)F)C1=O (stereo not drawn) | 9.58
COc1cccc(C(=O)N2C(C(=O)O)CSC2c2ccccc2Cl)c1 (stereo not drawn) | 8.61
Cc1ccc(P(=S)(c2ccc(C)o2)N2CCOCC2)o1 | 3.25
COc1cc(NC(=O)c2ccco2)c(OC)cc1NC(=O)CCC(=O)Nc1cccc(C)c1C | -3.26
COC(=O)COc1ccc(S(=O)(=O)NCc2ccc3c(c2)OCO3)cc1 | 12
O=C(CN1C2CCCC1CC(NC(=O)C1CCCCC1)C2)NCc1ccc(F)cc1 (stereo not drawn) | -14.9
CCn1nnc(NC(=O)C(c2ccccc2)c2ccccc2)n1 | 9.69
O=C(NCCN1CCCC1)c1ccc(Cn2c(=S)[nH]c3ccc(Br)cc3c2=O)cc1 | 1.01
COc1ccc(-c2nnc(-c3cccnc3)o2)cc1OC | -2.29
COCCCNC(=O)CN(c1cccc(Cl)c1)S(C)(=O)=O | 6.32
CC(C)N1CCN(Cc2ccc(-c3ccccc3Cl)o2)CC1CCO (stereo not drawn) | -2.59
CCCCNC(=O)C(=O)N/N=C/c1ccc(C(=O)OC)cc1 | 10.3
O=[N+]([O-])c1ccc(C2=Nc3cc(Cl)ccc3OC2)cc1 | 31
CS(=O)(=O)N(CC(=O)Nc1c(F)cccc1F)c1cccc([N+](=O)[O-])c1 | 6.33
CCc1c(O)nc(SCC(=O)Nc2ccccc2)n(-c2ccccc2)c1=O | 12.1
CCC(CCCO)CCC[C@H](C)CCC1OCCO1 (stereo partly drawn) | -0.575
CCOc1ccc(NC(=S)/C(=C(\[O-])c2ccc(C)c([N+](=O)[O-])c2)[n+]2ccccc2)cc1 | 1.23
O=C(CNS(=O)(=O)c1ccc2ccccc2c1)OCc1nnc(-c2ccccc2)o1 | 13.5
